The supplement of paper PMC10338343
± gives the standard deviation. Only a part is listed here, and it is no random draw.

Tested on: MIWI (PIWIL1) piRISC loaded with L1MC piRNA (30 nt)
Experiment: pre-steady-state target cleavage rate (min^-1); MIWI and MILI are mouse PIWI proteins and EfPiwi is from a freshwater sponge; tags in brackets are library labels; higher = faster piRNA-guided slicing of the target
Details: guide: L1MC piRNA 5'p-UAACUAAAUACUAUGCAAGCUGUAGGUCCU
Method in brief: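 Active affinity-purified piRISC carrying one synthetic guide (1 nM) was mixed with a transcribed, DNA-blocked target RNA library […] in HEPES–potassium acetate buffer at 33 °C for 0–8 or 0–960 min, with or without 500 nM GTSF1 partner protein. Uncleaved targets were then sequenced and normalised to depth and to weakly complementary targets. Three trials were pooled, and k3 was capped at 0.0001 min^-1. A burst-and-steady-state fit was applied to obtain the pre-steady-state cleavage rate.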

[1] = auxiliary factor: 500 nM mouse GTSF1
[2] = auxiliary factor: none (no GTSF1)
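Also: 1 nM active piRISC with 0.1 nM target library at 33 °C single turnover.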

UGGAGCUACAGCUUGCAUAGUAUUUACUUA
pre-steady-state target cleavage rate [1]: 0.319 ± 0.033 | pre-steady-state target cleavage rate [2]: 0.0321 ± 0.0047

UCCUCCUACACCUUGCAUAGUAUUUUGUUA
pre-steady-state target cleavage rate [1]: 0.425 ± 0.07 | pre-steady-state target cleavage rate [2]: 0.0173 ± 0.0025

UCGACCUAGAGCUUGCAUACUAUUUAGUUA
pre-steady-state target cleavage rate [1]: 0.273 ± 0.02 | pre-steady-state target cleavage rate [2]: 0.0232 ± 0.0049

UCCUGGAACUAGCUUGCAUAGUAUUUAGUUA
pre-steady-state target cleavage rate [1]: 0.472 ± 0.044 | pre-steady-state target cleavage rate [2]: 0.0415 ± 0.0091

AGGACCUUGUGCUUGCAUAGUAUUUAGUAA
pre-steady-state target cleavage rate [1]: 0.608 ± 0.073 | pre-steady-state target cleavage rate [2]: 0.0299 ± 0.0073

UCCUGGUACAGCUUGCAUAGUACUUAGUUA
pre-steady-state target cleavage rate [1]: 0.347 ± 0.039 | pre-steady-state target cleavage rate [2]: 0.0342 ± 0.0068

UCCAGCUACAGCUUGCAAAGUAUUUAGUUA
pre-steady-state target cleavage rate [1]: 0.493 ± 0.036 | pre-steady-state target cleavage rate [2]: 0.0247 ± 0.0041

UGGACCUACAGCUUGGAUAGUAUUAAGUUA
pre-steady-state target cleavage rate [1]: 0.732 ± 0.051 | pre-steady-state target cleavage rate [2]: 0.0338 ± 0.0091

UCCUGGUACGGCUUGCAUAGUAUUUAGUUA
pre-steady-state target cleavage rate [1]: 0.533 ± 0.048 | pre-steady-state target cleavage rate [2]: 0.0699 ± 0.013

UCCUCCUACAGCUUGCAUAGUAUUUAGCUA
pre-steady-state target cleavage rate [1]: 0.342 ± 0.1 | pre-steady-state target cleavage rate [2]: 0.00701 ± 0.0032

UCCUGGAUCAGGUUGCAUAGUAUUAAGUUA
pre-steady-state target cleavage rate [1]: 0.199 ± 0.019 | pre-steady-state target cleavage rate [2]: 0.00417 ± 0.0022

AGGACCUACAGCUUGCAUAGUAUUUAGAUA
pre-steady-state target cleavage rate [1]: 0.593 ± 0.054 | pre-steady-state target cleavage rate [2]: 0.0587 ± 0.013

UCCUGGAUGUCCUUGCAUAGUAAAUAGUUA
pre-steady-state target cleavage rate [1]: 0.00551 ± 0.0036 | pre-steady-state target cleavage rate [2]: 0.00317 ± 0.0029

UGGACGAUCAGCUUGCAUAGUAUUUAGUAA
pre-steady-state target cleavage rate [1]: 0.953 ± 0.064 | pre-steady-state target cleavage rate [2]: 0.0656 ± 0.013

UCCUGCUAAAGCUUGCAUAGUAUUUAGUUA
pre-steady-state target cleavage rate [1]: 0.242 ± 0.041 | pre-steady-state target cleavage rate [2]: 0.0111 ± 0.0018

UCGACCUUCAGCUAGCAUAGUAUUUAGUUA
pre-steady-state target cleavage rate [1]: 1.16 ± 0.064 | pre-steady-state target cleavage rate [2]: 0.0256 ± 0.0053

UCGACGUACAGCUUGCAUAGUAUUUUCAAA
pre-steady-state target cleavage rate [1]: 0.424 ± 0.06 | pre-steady-state target cleavage rate [2]: 0.00288 ± 0.0027

UCCUGGUACAGCUUGCUUAGUAUAUAGUUA
pre-steady-state target cleavage rate [1]: 0.361 ± 0.046 | pre-steady-state target cleavage rate [2]: 0.0202 ± 0.0066

UGGACGUAGAGCUUGCAUAGUAUUUAGUUA
pre-steady-state target cleavage rate [1]: 1.29 ± 0.083 | pre-steady-state target cleavage rate [2]: 0.043 ± 0.0093

UCCUGCUACAGCUUGGAUAGUAUUUAGAUA
pre-steady-state target cleavage rate [1]: 0.253 ± 0.034 | pre-steady-state target cleavage rate [2]: 0.0126 ± 0.0033

UCCUGCAACAGCUUGCAUAGUUUUUAGUUA
pre-steady-state target cleavage rate [1]: 0.44 ± 0.025 | pre-steady-state target cleavage rate [2]: 0.0443 ± 0.01

UCGACCUACUGCUUGCAUAGUAUUUUGUUA
pre-steady-state target cleavage rate [1]: 0.809 ± 0.027 | pre-steady-state target cleavage rate [2]: 0.059 ± 0.009

UCGACCUACACCUUGCAAAGUAUUUAGUUA
pre-steady-state target cleavage rate [1]: 1.05 ± 0.037 | pre-steady-state target cleavage rate [2]: 0.0403 ± 0.0079

UCCUGGUACUGCUUGCAUACUAUUUAGUUA
pre-steady-state target cleavage rate [1]: 0.115 ± 0.027 | pre-steady-state target cleavage rate [2]: 0.0131 ± 0.004

UGGACGUACAGCUUGCAUAGUAUUUACUUA
pre-steady-state target cleavage rate [1]: 0.273 ± 0.029 | pre-steady-state target cleavage rate [2]: 0.0472 ± 0.0065

UCCACCUACACCUUCCAUAGUAUUUAGUUA
pre-steady-state target cleavage rate [1]: 0.0317 ± 0.013 | pre-steady-state target cleavage rate [2]: 0.00281 ± 0.0021

AGGUACCUACAGCUUGCAUAGUAUUUAGUUA
pre-steady-state target cleavage rate [1]: 1.35 ± 0.21 | pre-steady-state target cleavage rate [2]: 0.481 ± 0.15

UCCUGGAAAAGCUUGCAUAGUAUUUAGUUA
pre-steady-state target cleavage rate [1]: 0.987 ± 0.053 | pre-steady-state target cleavage rate [2]: 0.0622 ± 0.013

UCCUCCUACAGCUUGCAUAGUAGUUAGUUA
pre-steady-state target cleavage rate [1]: 0.466 ± 0.031 | pre-steady-state target cleavage rate [2]: 0.0176 ± 0.0033

UCCUCCAACAGCUUGCAUAGUAUUUACAAA
pre-steady-state target cleavage rate [1]: 0.306 ± 0.036 | pre-steady-state target cleavage rate [2]: 0.00369 ± 0.0032

UCCUCCUACAGUUGCAUAGUAUUUAGUUA
pre-steady-state target cleavage rate [1]: 0.742 ± 0.046 | pre-steady-state target cleavage rate [2]: 0.00376 ± 0.0017

AGGUCCUACUGCUUGCAUAGUAUUUAGUUA
pre-steady-state target cleavage rate [1]: 1.12 ± 0.038 | pre-steady-state target cleavage rate [2]: 0.0889 ± 0.015

UGCACCUACAGCUUGCAUAGUAUUAAGUUA
pre-steady-state target cleavage rate [1]: 0.743 ± 0.069 | pre-steady-state target cleavage rate [2]: 0.0331 ± 0.008

UCCACCUACAGCUUGCAUAGUAUAUUAGUUA
pre-steady-state target cleavage rate [1]: 0.828 ± 0.05 | pre-steady-state target cleavage rate [2]: 0.0121 ± 0.0033

UCCUGGAUGAGCUUGCAUAGUAUUUAGGUUA
pre-steady-state target cleavage rate [1]: 0.547 ± 0.048 | pre-steady-state target cleavage rate [2]: 0.0295 ± 0.0066

AGGACCUACAGCUUGCAUAGUAAAUAGUAA
pre-steady-state target cleavage rate [1]: 0.402 ± 0.06 | pre-steady-state target cleavage rate [2]: 0.00431 ± 0.0033

UCGACCUACAGCUUGCAUAGUAUUUAGUGUA
pre-steady-state target cleavage rate [1]: 0.682 ± 0.047 | pre-steady-state target cleavage rate [2]: 0.038 ± 0.0081

UCCUCCUACAGCCUUGCAUAGUAUUUAGUUA
pre-steady-state target cleavage rate [1]: 1.06 ± 0.042 | pre-steady-state target cleavage rate [2]: 0.0471 ± 0.0083

UGGUGGUACAGCUUGCAUAGUAUUUAGAAA
pre-steady-state target cleavage rate [1]: 0.195 ± 0.03 | pre-steady-state target cleavage rate [2]: 0.0046 ± 0.0019

UCCACCAUACAGCUUGCAUAGUAUUUAGUUA
pre-steady-state target cleavage rate [1]: 0.902 ± 0.032 | pre-steady-state target cleavage rate [2]: 0.102 ± 0.02

UCCUCCUACAGCUUGCAAACUAUUUAGUUA
pre-steady-state target cleavage rate [1]: 0.312 ± 0.019 | pre-steady-state target cleavage rate [2]: 0.0071 ± 0.0021

UCCACCUACAGCUAGCAUACUAUUUAGUUA
pre-steady-state target cleavage rate [1]: 0.363 ± 0.033 | pre-steady-state target cleavage rate [2]: 0.0133 ± 0.0036

UCCUGGAUGAGCUUGCAUAGUAUUUAGUCUA
pre-steady-state target cleavage rate [1]: 0.0551 ± 0.014 | pre-steady-state target cleavage rate [2]: 0.0123 ± 0.0039

UCCUCCUUCAGCUUGCAUAGUAUUAAGUUA
pre-steady-state target cleavage rate [1]: 0.394 ± 0.033 | pre-steady-state target cleavage rate [2]: 0.0131 ± 0.0028

UGGACCUACACCUUGCAUAGUAUUUACUUA
pre-steady-state target cleavage rate [1]: 0.164 ± 0.023 | pre-steady-state target cleavage rate [2]: 0.0208 ± 0.0034

UCCUGGAACAGCUUGCAUAGUCUUUAGUUA
pre-steady-state target cleavage rate [1]: 0.671 ± 0.033 | pre-steady-state target cleavage rate [2]: 0.0545 ± 0.013

UCCUCCUUCAGCUUGCAUAGAAUUUAGUUA
pre-steady-state target cleavage rate [1]: 0.338 ± 0.048 | pre-steady-state target cleavage rate [2]: 0.0118 ± 0.0032

AGGAGCUACAGCUUCCAUAGUAUUUAGUUA
pre-steady-state target cleavage rate [1]: 0.31 ± 0.03 | pre-steady-state target cleavage rate [2]: 0.00791 ± 0.0021

UCCUGCUACAGCUUGCAUAGUAUUAUAGUUA
pre-steady-state target cleavage rate [1]: 0.57 ± 0.042 | pre-steady-state target cleavage rate [2]: 0.0153 ± 0.0033

UCCACCUACAGCUUGCAUACUAUUUACUUA
pre-steady-state target cleavage rate [1]: 0.192 ± 0.027 | pre-steady-state target cleavage rate [2]: 0.0161 ± 0.0042

UCCUGGAACAGGUUGCUUAGUAUUUAGUUA
pre-steady-state target cleavage rate [1]: 1.03 ± 0.065 | pre-steady-state target cleavage rate [2]: 0.0105 ± 0.0024

UGGACCUACAGCUUGCAUAGUAUUUACUAA
pre-steady-state target cleavage rate [1]: 0.143 ± 0.017 | pre-steady-state target cleavage rate [2]: 0.0153 ± 0.0048

UCCUGGUACAGCUUGCUAAGUAUUUAGUAA
pre-steady-state target cleavage rate [1]: 0.0498 ± 0.016 | pre-steady-state target cleavage rate [2]: 0.00416 ± 0.0022

UCCACCUACUAGCUUGCAUAGUAUUUAGUUA
pre-steady-state target cleavage rate [1]: 0.6 ± 0.026 | pre-steady-state target cleavage rate [2]: 0.0339 ± 0.0059

UCCUCCAACAGCAUGCAUAGUAUUUAGUUA
pre-steady-state target cleavage rate [1]: 1.11 ± 0.051 | pre-steady-state target cleavage rate [2]: 0.0217 ± 0.0039
